Measurements as given in a collection of fitness landscapes (doi:10.1126/science.1257360).
The list shows a part of the results.

B1: PhoQ; a variant is named by its letters at X, in order, P23837 (parent)
chain: MKKLLRLFFPLSLRVRFLLATAAVVLVLSLAYGMVALIGYSVSFDKTTFRLLRGESNLFYTLAKWENNKLHVELPENIDKQSPTMTLIYDENGQLLWAQRDVPWLMKMIQPDWLKSNGFHEIEADVNDTSLLLSGDHSIQQQLQEVREDDDDAEMTHSVAVNVYPATSRMPKLTIVVVDTIPVELKSSYMVWSWFIYVLSANLLLVIPLLWVAAWWSLRPIEALAKEVRELEEHNRELLNPATTRELTSLVRNLNRLLKSERERYDKYRTTLTDLTHSLKTPLXXLQXXLRSLRSEKMSVSDAEPVMLEQISRISQQIGYYLHRASMRGGTLLSRELHPVAPLLDNLTSALNKVYQRKGVNISLDISPEISFVGEQNDFVEVMGNVLDNACKYCLEFVEISARQTDEHLYIVVEDDGPGIPLSKREVIFDRGQRVDTLRPGQGVGLAVAREITEQYEGKIVAGESMLGGARMEVIFGRQHSAPKDE

Variants of: B1
Test: enrichment ratio after two sorts for PhoP signalling (ratio (wild type AVST 3.29)); higher = more functional
Details: with PhoP (E. coli)

Variant | enrichment ratio
YVRT | ≤ 0.25
LEQP | ≤ 0.25
PDLT | ≤ 0.25
RHDH | ≤ 0.25
RWWC | ≤ 0.25
TECC | 30
AYKM | ≤ 0.25
IHMQ | ≤ 0.25
HYMI | ≤ 0.25
MYNG | ≤ 0.25
RLIC | ≤ 0.25
KFSA | ≤ 0.25
IHDM | ≤ 0.25
DNLL | ≤ 0.25
RSEE | ≤ 0.25
FKFL | ≤ 0.25
NICR | ≤ 0.25
ADGC | ≤ 0.25
DIQW | ≤ 0.25
LACA | ≤ 0.25
NYHE | ≤ 0.25

Variant | enrichment ratio
IVKT | ≤ 0.25
LQLW | ≤ 0.25
LTNY | ≤ 0.25
GYFF | ≤ 0.25
FQGE | ≤ 0.25
RSHQ | ≤ 0.25
VPKT | ≤ 0.25
MCVF | ≤ 0.25
RCGS | ≤ 0.25
VENA | ≤ 0.25
APYY | ≤ 0.25
TLIH | ≤ 0.25
DPKP | ≤ 0.25
NWYR | ≤ 0.25
RING | ≤ 0.25
HQWI | ≤ 0.25
DKFK | ≤ 0.25
STKW | ≤ 0.25
PVGT | ≤ 0.25
VPPL | ≤ 0.25
PRIP | ≤ 0.25

Variant | enrichment ratio
SCLA | 11.8
ARAA | ≤ 0.25
AGIN | ≤ 0.25
GILH | 5.92
QFHL | ≤ 0.25
STKT | ≤ 0.25
LESN | ≤ 0.25
WVCI | ≤ 0.25
KPHN | ≤ 0.25
ADVL | 3.21
LSQH | ≤ 0.25
AYRA | ≤ 0.25
TFNL | 0.993
IPDV | ≤ 0.25
WQWF | ≤ 0.25
ARNM | ≤ 0.25
WYTE | ≤ 0.25
TADP | ≤ 0.25
WGIF | ≤ 0.25
ALNP | ≤ 0.25
RNRF | ≤ 0.25

Variant | enrichment ratio
KRPW | ≤ 0.25
CHYI | ≤ 0.25
NRML | ≤ 0.25
TNNY | 5.03
IFLA | ≤ 0.25
YWCA | ≤ 0.25
NKMW | ≤ 0.25
WKVI | ≤ 0.25
MHED | ≤ 0.25
PFQS | ≤ 0.25
RQYM | ≤ 0.25
EESN | ≤ 0.25
EGVG | ≤ 0.25
MWGH | ≤ 0.25
IFCH | ≤ 0.25
KMFC | ≤ 0.25
ICYI | ≤ 0.25
DVAI | ≤ 0.25
IRWF | ≤ 0.25
IHIR | ≤ 0.25
WYKI | ≤ 0.25
